B1: Caulobacter ParB omega fusion; a variant is named by its letters at X, in order, B8GW30 (parent)
chain: MESVVVGEPGMSEGRRGLGRGLSALLGEVDAAPAQAPGEQLGGSREAPIEILQRNPDQPRRTFREEDLEDLSNSIREKGVLQPILVRPSPDTAGEYQIVAGERAWRAAQRAGLKTVPIMVRELDDLAVLEIGIIENVQRADLNVLEEALSYKVLMEKFERTQENIAQTIGKSXSHVANXMRLLXLPDEVQSYLVSGELTAXHARAIAAAADPVALAKQIIEGGLSVRETEALARKAPNLSAGKSKGGRPPRVKDTDTQALESDLSSVLGLDVSIDHRGSTGTLTITYATLEQLDDLCNRLTRGI

Whole data set: some 81,000 sequences, median “one-hybrid fitness for binding parS DNA” near -0.17, cut for the highest 2% near 0.51. The list shows a part of the results.

Variants of B1 are the subject of this assay. The assay is described as follows: one-hybrid fitness for binding parS DNA (scaled: cognate 1, non-cognate 0); higher = stronger binding. Particulars: with parS DNA site. Put shortly: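 Selection: bacterial one-hybrid in E. coli USO, HIS3 reporter with the site 19 bp from the promoter, 48 hours at 37°C on M9-minus-histidine plus 0.1 mM IPTG and 5 mM 3-AT. Libraries were Caulobacter ParB with four randomised specificity codons, sequenced on Illumina before and after selection. Fitness is the rescaled log change in variant-to-wild-type read ratio, anchored to the cognate and non-cognate sites.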
On to SPVI, for which the “one-hybrid fitness for binding parS DNA” value was at most 0.2.
For the variant TLWM, the “one-hybrid fitness for binding parS DNA” value was at most 0.2.
Then GQTC, with at most 0.2; and APPC, with at most 0.2.
The value for ANDE was at most 0.2; that for VDNG was at most 0.2.
Then KSMT, with at most 0.2.
Regarding LPQG, the “one-hybrid fitness for binding parS DNA” value is at most 0.2.
Then ILET, with at most 0.2.
The value for HHVR was at most 0.2.
NSLG: the “one-hybrid fitness for binding parS DNA” value is at most 0.2.
The value for MCNR was at most 0.2.
Consider ISYC, for which the “one-hybrid fitness for binding parS DNA” value is at most 0.2.
Take MKSH: the “one-hybrid fitness for binding parS DNA” value was at most 0.2.
The value for KLKA was at most 0.2.
Then NVEF, with at most 0.2; and PMKW, with at most 0.2.
Then ENYS, with at most 0.2.
DRNA: the “one-hybrid fitness for binding parS DNA” value was at most 0.2.
The value for NSRF was at most 0.2; that for HRLP was at most 0.2; that for VTYC was at most 0.2.
Then YENN, with at most 0.2; and PKTL, with at most 0.2.
Then QEPF, with at most 0.2; and WPYS, with at most 0.2.
Consider QQPY, for which the “one-hybrid fitness for binding parS DNA” value is at most 0.2.
The value for PLRK was at most 0.2; that for DPGL was at most 0.2.
The value for AMTS was at most 0.2; that for PPQF was at most 0.2; that for GAVT was at most 0.2.
The value for PLTI was at most 0.2; that for RTEC was 0.874; that for TYTV was at most 0.2.
Consider YYAQ, for which the “one-hybrid fitness for binding parS DNA” value is at most 0.2.
The value for CQRE was at most 0.2.
Then TYVI, with at most 0.2.
As to FVLV, the “one-hybrid fitness for binding parS DNA” value was at most 0.2.
Then RRQW, with at most 0.2; and SVCI, with at most 0.2.
Then HVHA, with at most 0.2; and HEAT, with at most 0.2.
As for RHIK, the “one-hybrid fitness for binding parS DNA” value is at most 0.2.
The value for MRTV was at most 0.2; that for CLTT was at most 0.2; that for MLAL was at most 0.2.
Then NAQC, with at most 0.2; and EMPT, with at most 0.2; and QHVC, with at most 0.2.
The value for RFYR was at most 0.2.
In the case of KVKW, the “one-hybrid fitness for binding parS DNA” value is at most 0.2.
The value for LVQP was at most 0.2; that for QHGK was at most 0.2.
On to DDVW, for which the “one-hybrid fitness for binding parS DNA” value is at most 0.2.
In the case of TCKM, the “one-hybrid fitness for binding parS DNA” value is at most 0.2.
Then QAQF, with at most 0.2.
Consider HPTM, for which the “one-hybrid fitness for binding parS DNA” value was at most 0.2.
The value for QYLC was at most 0.2.
Then YGNT, with at most 0.2; and MLTW, with at most 0.2; and TAER, with at most 0.2.
The value for YVCD was at most 0.2; that for QHIT was at most 0.2.
As to SRHA, the “one-hybrid fitness for binding parS DNA” value is at most 0.2.
The value for SYCT was at most 0.2; that for VPRG was at most 0.2; that for YFDG was at most 0.2.
For RIYN, the “one-hybrid fitness for binding parS DNA” value turned out to be 0.476.
Then QWAL, with at most 0.2; and IFKN, with at most 0.2; and RCGF, with at most 0.2.
The value for RYGE was at most 0.2.
Turning to HQWC, the “one-hybrid fitness for binding parS DNA” value is at most 0.2.
Then QVPR, with at most 0.2; and RCNV, with at most 0.2; and TPIW, with at most 0.2.
Then KWAK, with at most 0.2; and NSPT, with at most 0.2.
Then PVIV, with at most 0.2; and HSHS, with at most 0.2.
Consider GRER, for which the “one-hybrid fitness for binding parS DNA” value is at most 0.2.
Regarding CYLG, the “one-hybrid fitness for binding parS DNA” value is at most 0.2.
The value for LHEA was at most 0.2; that for SEKD was at most 0.2; that for GDTQ was at most 0.2.
The value for RLFV was at most 0.2.
The value for RFWT was 0.649; that for HCEI was at most 0.2.
As for GEHA, the “one-hybrid fitness for binding parS DNA” value was at most 0.2.
Then CELR, with at most 0.2; and WNAT, with at most 0.2; and AYPM, with at most 0.2.
Turning to RVNW, the “one-hybrid fitness for binding parS DNA” value was at most 0.2.
Then MRNI, with at most 0.2.
Then TIEK, with at most 0.2.
The value for GWNR was at most 0.2; that for CMMG was at most 0.2.
Regarding DHID, the “one-hybrid fitness for binding parS DNA” value is at most 0.2.
Then VRRP, with at most 0.2; and MRST, with at most 0.2; and CSLI, with at most 0.2.
The value for VLEC was at most 0.2; that for RHKP was at most 0.2; that for LFRI was at most 0.2.
Then YASM, with at most 0.2.
For the variant AEMG, the “one-hybrid fitness for binding parS DNA” value is at most 0.2.
For the variant VKKM, the “one-hybrid fitness for binding parS DNA” value was at most 0.2.
In the case of SQIL, the “one-hybrid fitness for binding parS DNA” value is at most 0.2.
Regarding QHLV, the “one-hybrid fitness for binding parS DNA” value is at most 0.2.
Then GRAR, with at most 0.2.
Take PWMG: the “one-hybrid fitness for binding parS DNA” value was at most 0.2.
The value for CLKF was at most 0.2; that for DKVH was at most 0.2.
Then TAPV, with at most 0.2.
For EPPA, the “one-hybrid fitness for binding parS DNA” value was at most 0.2.
Then QQVD, with at most 0.2.
The value for EPQN was at most 0.2.
PYHK: the “one-hybrid fitness for binding parS DNA” value was at most 0.2.
Consider RNFS, for which the “one-hybrid fitness for binding parS DNA” value stood at 0.719.
As to QAVH, the “one-hybrid fitness for binding parS DNA” value is at most 0.2.
The value for SNLA was at most 0.2; that for ICWT was at most 0.2.
Then TWPY, with at most 0.2; and VLRS, with at most 0.2.
The value for APRH was at most 0.2; that for PTAN was at most 0.2.
As to TKAN, the “one-hybrid fitness for binding parS DNA” value is at most 0.2.
The value for RDKQ was at most 0.2; that for HFHV was at most 0.2.
The value for RCPG was 0.81; that for AKEG was at most 0.2.
WYKT: the “one-hybrid fitness for binding parS DNA” value is at most 0.2.
Then KRPW, with at most 0.2; and HFHY, with at most 0.2.
On to ECES, for which the “one-hybrid fitness for binding parS DNA” value is at most 0.2.
SRRH: the “one-hybrid fitness for binding parS DNA” value is at most 0.2.
Then KEVG, with at most 0.2; and TGLE, with at most 0.2; and WWPR, with at most 0.2.
Then HANR, with at most 0.2; and QLIK, with at most 0.2.
The value for TKPC was at most 0.2.
Turning to FNHG, the “one-hybrid fitness for binding parS DNA” value was at most 0.2.
Take TPAV: the “one-hybrid fitness for binding parS DNA” value was at most 0.2.
With FVGM, the “one-hybrid fitness for binding parS DNA” value is at most 0.2.
Then AIPC, with at most 0.2; and PTLL, with at most 0.2; and RPFC, with at most 0.2.
On to HAAD, for which the “one-hybrid fitness for binding parS DNA” value is at most 0.2.
On to TTEC, for which the “one-hybrid fitness for binding parS DNA” value is at most 0.2.
The value for HCES was at most 0.2.
Then PYMF, with at most 0.2.

For the origin of these results see a collection of fitness landscapes (doi:10.1016/j.celrep.2020.107928).
